This note sets out measurements from a collection of fitness landscapes (doi:10.1126/science.1257360).

The other results are listed elsewhere or left out.

B1: PhoQ; a variant is named by its letters at X, in order, P23837 (parent)
chain: MKKLLRLFFPLSLRVRFLLATAAVVLVLSLAYGMVALIGYSVSFDKTTFRLLRGESNLFYTLAKWENNKLHVELPENIDKQSPTMTLIYDENGQLLWAQRDVPWLMKMIQPDWLKSNGFHEIEADVNDTSLLLSGDHSIQQQLQEVREDDDDAEMTHSVAVNVYPATSRMPKLTIVVVDTIPVELKSSYMVWSWFIYVLSANLLLVIPLLWVAAWWSLRPIEALAKEVRELEEHNRELLNPATTRELTSLVRNLNRLLKSERERYDKYRTTLTDLTHSLKTPLXXLQXXLRSLRSEKMSVSDAEPVMLEQISRISQQIGYYLHRASMRGGTLLSRELHPVAPLLDNLTSALNKVYQRKGVNISLDISPEISFVGEQNDFVEVMGNVLDNACKYCLEFVEISARQTDEHLYIVVEDDGPGIPLSKREVIFDRGQRVDTLRPGQGVGLAVAREITEQYEGKIVAGESMLGGARMEVIFGRQHSAPKDE

The variants in the experiment derive from B1. Nature of the experiment: enrichment ratio after two sorts for PhoP signalling (ratio (wild type AVST 3.29)); higher = more functional. Conditions: with PhoP (E. coli).
For the variant DTLF, the enrichment ratio is not above 0.25. With DVIA, the enrichment ratio was not above 0.25. Next, MPQH: not above 0.25. For FYDE, the enrichment ratio was not above 0.25. Take NCWF: the enrichment ratio is not above 0.25. As for FVPY, the enrichment ratio was not above 0.25. As for ITVI, the enrichment ratio is not above 0.25. For PDCA the value was not above 0.25; for IDPQ, not above 0.25.

With GFHP, the enrichment ratio is not above 0.25. For MTST, the enrichment ratio was not above 0.25. For the variant NQGR, the enrichment ratio was not above 0.25. Take IRPI: the enrichment ratio was not above 0.25. TEML: the enrichment ratio worked out at 28.6. On to QPRP, for which the enrichment ratio is not above 0.25. As for YFAH, the enrichment ratio was not above 0.25. Regarding RVQA, the enrichment ratio is not above 0.25.

Regarding DVQG, the enrichment ratio was not above 0.25. Take AICP: the enrichment ratio is not above 0.25. As to NFKI, the enrichment ratio is not above 0.25. For LWKN, the enrichment ratio was not above 0.25. Take HCTP: the enrichment ratio was not above 0.25. On to RTTI, for which the enrichment ratio is not above 0.25. With PMYW, the enrichment ratio is not above 0.25. Next, EGQA: not above 0.25; NYTF: not above 0.25. For the variant VWLP, the enrichment ratio was not above 0.25. On to SILA, for which the enrichment ratio was found to be 16.9.

For FVWM, the enrichment ratio is not above 0.25. For WCHL the value was not above 0.25; for FLLS, not above 0.25; for VYIT, not above 0.25.

For the variant SQNF, the enrichment ratio is not above 0.25. Next, RQTM: not above 0.25; HGSI: 0.812; LHGH: not above 0.25. Regarding AETH, the enrichment ratio was found to be 0.824. Take MMKV: the enrichment ratio was not above 0.25.

In the case of LSSC, the enrichment ratio is not above 0.25. Next, IQHY: not above 0.25; TYTH: not above 0.25; FHPE: not above 0.25. NDGT: the enrichment ratio is not above 0.25.

Consider FNNF, for which the enrichment ratio came out at 0.347. For FAPD, the enrichment ratio was not above 0.25.

Regarding YDEH, the enrichment ratio is not above 0.25. Turning to KLPF, the enrichment ratio is not above 0.25. As to VNDC, the enrichment ratio was not above 0.25. As to PTFD, the enrichment ratio is not above 0.25.

Turning to LDEH, the enrichment ratio was not above 0.25. On to YQQG, for which the enrichment ratio is not above 0.25. Take RRSS: the enrichment ratio was not above 0.25. Turning to TQIC, the enrichment ratio amounted to 8.58.

With DRDQ, the enrichment ratio was not above 0.25.

Take AKSR: the enrichment ratio was not above 0.25.

With YGHC, the enrichment ratio is not above 0.25.

Consider TKFQ, for which the enrichment ratio turned out to be 3.42. For TFSG the value was 13.9.

In the case of FHVI, the enrichment ratio was not above 0.25.

With HTRK, the enrichment ratio is not above 0.25.

Consider NGGE, for which the enrichment ratio is not above 0.25. For HEAT the value was not above 0.25; for ALTC, 0.959.

EQQC: the enrichment ratio is not above 0.25. For HKRC the value was not above 0.25; for SGTA, 7.55. Take DVPQ: the enrichment ratio was not above 0.25. Next, LKTF: not above 0.25.

As to FKYQ, the enrichment ratio is not above 0.25. Take WKIA: the enrichment ratio is not above 0.25. For the variant HKSM, the enrichment ratio is not above 0.25.

Take LMKW: the enrichment ratio is not above 0.25. Turning to VYPE, the enrichment ratio was not above 0.25.

Regarding LHQW, the enrichment ratio was not above 0.25. As for IIHT, the enrichment ratio was not above 0.25. On to LPGI, for which the enrichment ratio was not above 0.25. Next, YFDL: not above 0.25; LEMN: not above 0.25; GTNP: not above 0.25. Regarding SLIG, the enrichment ratio was not above 0.25. Turning to GFWC, the enrichment ratio is not above 0.25.

Consider SWWQ, for which the enrichment ratio is not above 0.25. Next, ANMV: 19.1; EVPN: not above 0.25. Turning to HYLP, the enrichment ratio was not above 0.25. Turning to RDSH, the enrichment ratio was not above 0.25. Consider VMWY, for which the enrichment ratio is not above 0.25. Take TNGS: the enrichment ratio came out at 7.8. As for KRIC, the enrichment ratio is not above 0.25. As to HTTI, the enrichment ratio is not above 0.25. For NIYQ the value was not above 0.25; for MSEQ, not above 0.25; for VEGR, not above 0.25. Next, EQTY: not above 0.25; VMEI: not above 0.25.

For KWPL, the enrichment ratio was not above 0.25. As to WRKI, the enrichment ratio is not above 0.25. For the variant MSNE, the enrichment ratio is not above 0.25.

For the variant FLQW, the enrichment ratio is not above 0.25. For the variant ATQP, the enrichment ratio was not above 0.25.

Turning to PRKY, the enrichment ratio was not above 0.25. As to HMMY, the enrichment ratio was not above 0.25. Next, LLRH: not above 0.25.

TFRI: the enrichment ratio was not above 0.25. On to EDEV, for which the enrichment ratio is not above 0.25. Consider NTKH, for which the enrichment ratio was not above 0.25.

In the case of ENPR, the enrichment ratio is not above 0.25.

KMAM: the enrichment ratio was not above 0.25.

As to CFCY, the enrichment ratio is not above 0.25. Next, KDWL: not above 0.25. For NITK the value was not above 0.25; for WWRW, not above 0.25.

For the variant KKTD, the enrichment ratio is not above 0.25.

With PFRH, the enrichment ratio is not above 0.25. Next, LQDL: not above 0.25; DLGL: not above 0.25. Next, HHEH: not above 0.25; WYSC: not above 0.25; IRVT: not above 0.25. For DDYQ, the enrichment ratio is not above 0.25. Consider LRGI, for which the enrichment ratio is not above 0.25.

Consider MYTG, for which the enrichment ratio was not above 0.25.

In the case of RHMV, the enrichment ratio was not above 0.25. As to WSDC, the enrichment ratio is not above 0.25. As to VMCE, the enrichment ratio is not above 0.25.

For HTKH, the enrichment ratio was not above 0.25. For PLEM the value was not above 0.25. On to RKDT, for which the enrichment ratio was not above 0.25. With FNRK, the enrichment ratio was not above 0.25. In the case of WGCG, the enrichment ratio is not above 0.25. As to FIER, the enrichment ratio was not above 0.25. Turning to SWCL, the enrichment ratio was not above 0.25. On to VNSF, for which the enrichment ratio is not above 0.25. Regarding FCAI, the enrichment ratio is not above 0.25. As for PFGM, the enrichment ratio was not above 0.25. Consider HYAN, for which the enrichment ratio is not above 0.25. Turning to ASPC, the enrichment ratio is not above 0.25. For the variant PLPY, the enrichment ratio is not above 0.25. On to EMQH, for which the enrichment ratio was not above 0.25. For ECDL, the enrichment ratio is not above 0.25. Regarding QIAI, the enrichment ratio came to 2.26.

For WPGH, the enrichment ratio was not above 0.25. With IKQA, the enrichment ratio was not above 0.25. For AKYS the value was not above 0.25; for SPTT, not above 0.25. In the case of SFHE, the enrichment ratio is not above 0.25. Take PQWE: the enrichment ratio is not above 0.25. For NGDP the value was not above 0.25. As to TVHD, the enrichment ratio is not above 0.25. Consider HETE, for which the enrichment ratio was not above 0.25.

Take MEPF: the enrichment ratio is not above 0.25. Next, FMHD: not above 0.25. Turning to IMMA, the enrichment ratio was not above 0.25.
